Out of some 45,000 compounds screened, about 65 (0.1%) were called active. The call rests on the fitted dose curve; in most records, active means well fitted activation curve with a large enough effect; inconclusive means small, poorly fitted or top-dose-only effect; inactive means no such curve, though single readings can be large or run the other way. The list shows a part of the results.
molecular target: Galactocerebrosidase (Homo sapiens) (UniProt P54803); assay: A Novel Cell-Based Assay to Identify Small Molecules for B -Galactocerebrosidase; details: 145M-Twi-hGALC-G270D cells (Twitcher mouse brain line with human GALC G270D), HMU-beta-Gal fluorescence, 48 h; series mostly up to 57.5 µM; activation: at the top concentration; further: 0% is about no effect; nearly all actives have a fitted effect of over 65% in size
UniProt P54803, sequence (P54803 whole entry, looked up): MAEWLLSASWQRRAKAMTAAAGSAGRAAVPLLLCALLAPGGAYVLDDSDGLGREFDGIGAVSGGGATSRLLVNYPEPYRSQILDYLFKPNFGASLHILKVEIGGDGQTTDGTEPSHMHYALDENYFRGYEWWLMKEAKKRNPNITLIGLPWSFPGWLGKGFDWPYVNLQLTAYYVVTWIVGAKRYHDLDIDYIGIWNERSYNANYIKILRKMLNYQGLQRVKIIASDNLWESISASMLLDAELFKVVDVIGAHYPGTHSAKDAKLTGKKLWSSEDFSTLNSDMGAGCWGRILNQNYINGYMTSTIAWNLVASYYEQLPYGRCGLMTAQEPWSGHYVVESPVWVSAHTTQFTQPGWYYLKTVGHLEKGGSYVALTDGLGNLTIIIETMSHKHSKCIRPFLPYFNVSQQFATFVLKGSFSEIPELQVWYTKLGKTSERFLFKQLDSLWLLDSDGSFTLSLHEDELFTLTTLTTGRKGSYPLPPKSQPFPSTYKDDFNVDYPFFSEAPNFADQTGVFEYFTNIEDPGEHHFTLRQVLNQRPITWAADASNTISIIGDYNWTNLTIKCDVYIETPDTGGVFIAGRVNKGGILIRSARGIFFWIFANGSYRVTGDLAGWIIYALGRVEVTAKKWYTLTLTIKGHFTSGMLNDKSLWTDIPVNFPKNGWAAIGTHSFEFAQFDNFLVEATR
In short: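 Fluorescence readout: HMU-β-gal cleavage by mutant GALC (0.1 mM final, citrate/phosphate pH 5.2 with 1 mg/mL taurocholate), stopped with carbonate/bicarbonate plus Triton X-100. Cells: murine Twitcher 145M-Twi expressing human G270D GALC; qHTS for activators.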

activation, inactive:
Cc1nn2c(=O)cc(COC(=O)c3ccc(F)cc3)nc2s1 -5.28%, NC1CCN(c2cccc(Cl)n2)CC1 -15.7%, COc1ccccc1CNC(=O)CCCn1c(=O)c2cccn2c2ccccc21 -12.5%, CC(C)(C)OC(=O)N1CCC(c2c(C(=O)N3CCOCC3)cnn2-c2ccccc2Cl)CC1 -16.8%, CCCCNC(=O)CCCn1c(=O)c2ccccc2n(Cc2ccc(Cl)cc2)c1=O -25.7%, COc1ccc(C2CC(=O)c3cnc4c(-c5ccccc5)c(C)nn4c3C2)c(OC)c1 (centres undefined) -11.2%, COc1ccc2c(c1)c1c(c(=O)n(-c3ccc(OC)c(OC)c3)c(=O)n1Cc1ccc(C)cc1)n2C -0.845%, Fc1ccc(-c2noc3ncnc(N4CCCCC4)c23)cc1 8.32%, COc1ccc(Cc2nc3ccc(C(=O)NCc4cc(Br)ccc4OC)cc3o2)cc1 -10.5%, N#Cc1ccccc1S(=O)(=O)N1CCC(Oc2ccc(-n3cnnn3)cc2)CC1 -12.5%, O=C(Cc1ccccc1)Nc1cc(-c2nc3cc(Cl)ccc3o2)ccc1Cl -8.55%, CCc1c(C)nc2nncn2c1Nc1cccc(C)c1 -8.09%, COc1ccc(-c2nc(SCC(=O)Nc3cccc(C(C)=O)c3)n[nH]2)cc1 -7.81%, COc1ccc(NC(=O)C2CCN(c3nc(-c4ccc(OC)c(OC)c4)no3)CC2)cc1Cl -14.9%, CCOC(=O)c1c(NC(=O)c2cc(=O)c3c(C)cc(C)cc3o2)sc2c1CCC2 1.92%, COc1ccc(-c2cc(C(=O)OCC(=O)c3cccc(OC)c3)c3cccc(Cl)c3n2)cc1 -16.2%, O=C(O)CCNC(=O)c1ccc(N=Nc2ccc(O)c(C(=O)O)c2)cc1 -16.1%, COc1ccccc1N(C)C(=O)Cn1c(=O)oc2cc(S(=O)(=O)N3CCCC3)ccc21 -6.78%, Cc1ccccc1CNC(=O)C1CCCN(c2nnc(-n3c(C)ccc3C)s2)C1 (centres undefined) 19.7%, CCOC(=O)c1c(NC(=O)CS(=O)(=O)c2ccc(Cl)cc2)sc2c1CCCC2 -19.8%, COc1ccc(CCC(=O)NCc2nc3cccnc3n2Cc2ccc(OC)cc2)cc1 -1.24%, CNC(=O)C1CCN(C(=O)N2CC(C)Oc3ccc(C)cc32)CC1 (centres undefined) -17.3%, Cc1ccc(C)c(NC(=O)Cn2nnc(C(=O)NCc3ccco3)c2N)c1 5.35%, CCOC(=O)c1c(C)oc2ncnc(N3CCN(c4cccc(Cl)c4)CC3)c12 -13.5%, CC1=C(C(=O)Nc2ccccc2)C(c2ccccc2Cl)n2ncc(C(=O)Nc3cccc(C)c3)c2N1 (centres undefined) -13.7%, COc1ccc(Cl)cc1NC(=O)CSc1nc2ccccc2nc1N1CCCCC1 2.73%, CCOC(=O)c1c(C)[nH]c(C)c1S(=O)(=O)N1CCN(c2ccccc2OC)CC1 -26.7%, Cn1c(=O)c2c(ncn2CC(=O)Nc2cc(Cl)cc(Cl)c2)n(C)c1=O 6.93%, Cn1cc(S(=O)(=O)N2CCCCCC2)cc1C(=O)N1CCN(c2ccc(Cl)cc2)CC1 -8.86%, CCOC(=O)c1cc(-c2ccccc2)n(CCCC(=O)Nc2ccc(C)c(C)c2)c1C -13.2%, Cc1nn(C)c2c1c(C(F)(F)F)cc(=O)n2C(C)C(=O)N1CCN(c2ccccc2)CC1 (centres undefined) -12.2%, CN(Cc1ccccc1)C(=O)c1cc2c(s1)-c1ccc(Cl)cc1SC2 -9.57%, COc1cc(NCc2ccc3nc(N)nc(N)c3c2C)cc(OC)c1OC -16.9%, CCOc1ccc(CNC(=O)Cn2c(=O)c3cccn3c3ccc(F)cc32)cc1OC -1.02%, O=C(CCCCn1c(=O)c2ccccc2n(CC(=O)Nc2cccc(F)c2)c1=O)NCc1ccccc1Cl -4.9%, COc1cc(/C=C/c2nc(C#N)c(NC(C)c3ccccc3)o2)cc(OC)c1OC (centres undefined) -1.36%, CCOC(=O)CCN(c1ccccc1)S(=O)(=O)c1ccc2[nH]c(=O)ccc2c1 -6.64%, O=C(c1ccc(Cl)cc1)n1nc(-c2ccco2)nc1NCc1cccs1 -1%, CCc1ccc(Oc2nc3c(C)cccn3c(=O)c2/C=C(\C#N)c2nc3ccccc3s2)cc1 -18%, Cc1ccc(CNC(=O)Cn2c(=O)n(-c3ccccc3)c(=O)c3c2c2cc(C)ccc2n3C)cc1 2.48%, Cc1ccc(NC(=O)CCSc2nc(-c3ccc4c(c3)OCO4)cc(C(F)(F)F)n2)cc1 -14.8%, CCCCN(C)CCNC(=O)Cn1ncc2c([nH]c3ccccc32)c1=O -10.3%, O=C(Cc1csc2nc(-c3ccccc3)cn12)NCc1ccc(F)cc1 -10.4%, O=C(NCC(c1cccs1)S(=O)(=O)c1cccs1)c1ccc(C(F)(F)F)cc1 (centres undefined) -2.08%, CCOc1ccccc1NC(=O)N1CCCn2nc(C)cc21 -14%, COc1cc(C(=O)NCc2ccc(OCCN(C)C)cc2)cc(OC)c1OC -9.3%, COc1ccc(CCCc2nnc(SCC(=O)Nc3ccccc3F)o2)cc1C -13.7%, Cc1ccc(-n2ncc3c(N(CCO)Cc4ccccc4)ncnc32)cc1 -9.26%, CCCN1CCCC[C@H]1C(=O)Nc1c(C)cccc1C -18.3%, CCOCCCNC(=O)CN1C(=O)c2c(c3ccccc3n2C)C1c1ccc(OC)cc1 (centres undefined) -9.79%, COc1cccc(N(Cc2nnc3n2CCCCC3)C(=O)Nc2cccc(Cl)c2)c1 -6.64%, O=C(OCc1ccccc1Cl)c1ccc(-c2nnn(Cc3ccccc3Cl)n2)cc1 -27.3%, CCOC(=O)c1c(S(=O)(=O)N2CCCC(C(=O)Nc3ncccc3C)C2)c(C)n(C)c1C (centres undefined) -11%, COc1ccc(N(C(=O)COc2ccc(Br)cc2)S(=O)(=O)c2ccc(C)cc2)cc1 -17.4%, Cc1ccc(NC(=O)CCc2c(C)nn(-c3ccc(N4CCOCC4)nn3)c2C)cc1F 11.5%, O=C(NC1CC(=O)N(c2ccc(F)cc2)C1)c1ccc(S(=O)(=O)N2CCCC2)cc1 (centres undefined) -10.8%, CCN(C(=O)CSc1nc2ccccc2nc1Cc1cccc(OC)c1)c1cccc(C)c1 -6.27%, Cc1ccc(Cn2c(C(=O)O)c(CNCCc3cccs3)c3ccc(C)cc32)cc1 -3.73%, O=C(COc1ccc(Cl)cc1)Nc1ccc(O)c(-c2nc3ccccc3s2)c1 -24%, Cc1ccc(NC(=O)Nc2nc3c(s2)CCCCCC3)cc1C -13.6%, CN(C)c1ccc(C(CNC(=O)c2ccccc2Cl)N2CCc3ccccc32)cc1 (centres undefined) -17%, CC(C)NCC(O)COc1ccc(CCOCC2CC2)cc1 (centres undefined) -11.9%, CCCCOc1ccc(C(=O)NCCS(=O)(=O)N2CCN(c3ccccc3OC)CC2)cc1 -18.3%, COc1ccccc1NC(=O)c1ccc2[nH]c(C)cc(=O)c2c1 -17%, Cc1cc(Br)ccc1NC(=O)COc1cc(=O)n(C)c2ccccc12 1.63%, Cc1nnc(N2CCC(C(=O)NCc3ccc(F)cc3)CC2)c2nn(-c3ccc(Cl)cc3)c(C)c12 -3.28%, CCN(CC)S(=O)(=O)c1ccc2nc(NC(=O)c3ccccc3OC)sc2c1 -33.1%, O=c1c2sc3ccccc3c2n(Cc2ccccc2F)c(=O)n1-c1ccccc1Cl 0.0345%, COc1cccc(CNC(=O)CSc2nc3ccccc3nc2Cc2ccccc2)c1 -8.8%, COc1ccccc1N1CCN(c2ccc(=O)n(CC(=O)O)n2)CC1 -9.45%, CCOCC(=O)Nc1ccc(-c2cn3c(C)csc3n2)cc1 -12.7%, Cc1ccc2c(c1)cc(C(=O)NCc1ccc(F)cc1)n2C -15.5%, COc1cccc(C2CC(=O)Nc3c2c(=O)[nH]c2ncnn32)c1OC (centres undefined) -16.9%, Cc1cccc2cc(CN(C(=O)c3cccc(Cl)c3)c3ccccc3)c(=O)[nH]c12 2.03%, CCN(C(=O)CSc1nc(-c2ccccc2)no1)c1cccc(C)c1 -7.25%, CNC(=O)C1CCC(Cn2c(=O)c3sccc3n(CC(=O)N3CCCC3)c2=O)CC1 (centres undefined) 1.66%, COc1cccc(CNc2ncnc3c2nnn3C)c1 -6.85%, CCOc1ccc(C2C(C(N)=O)=C(C)Nc3nc(-c4ccc(OC)cc4)nn32)cc1 (centres undefined) -12%, O=C(C1CCN(S(=O)(=O)c2ccc(Br)s2)CC1)N1CCN(c2ccc(F)cc2)CC1 0.0052%, COc1ccccc1C(=O)Nc1cccc(OCc2cc(=O)n3c4c(sc3n2)CCCC4)c1 -3.36%, COc1ccccc1Nc1nn2c(=O)c3ccc(C(=O)NC4CCC(C)CC4)cc3nc2s1 (centres undefined) -15%, CCc1nc(N)nc(N)c1-c1ccc(Cl)cc1 -15.5%, COc1ccc(C(=O)Nc2ccccc2)cc1S(=O)(=O)Nc1ccc(Br)cc1 -9.99%, Cc1cc2ccccc2n1CCNC(=O)c1ccccc1F -14.2%, O=c1c2sc3ccccc3c2n(Cc2ccc(F)cc2)c(=O)n1Cc1ccco1 -11.4%, c1ccc2sc(SN3CCOCC3)nc2c1 -9.63%, O=C(NCC(c1ccc2c(c1)OCO2)N1CCN(c2ccccc2)CC1)C(=O)Nc1ccccc1 (centres undefined) -11.3%, CC(C)c1ccc(S(=O)(=O)c2nnn3c2nc(NCc2cccs2)c2sccc23)cc1 -26.9%, CC(=O)Nc1ccc(OC(=O)c2ccccc2OC(C)=O)cc1 -21.7%, Fc1ccc(Nc2nc(-c3cccc(Cl)c3)c3c(n2)-c2ccccc2OC3)cc1 -5.24%, O=C(Nc1ccc2nc(SCC(=O)N3CCCc4ccccc43)sc2c1)c1ccccc1F -4.89%, CCc1ccc(C2=C(C)C(N3CCC(C(=O)Nc4ccc(F)cc4)CC3)=NS2(=O)=O)cc1 -12.7%, O=C(Nc1cccc(C(=O)N2CCN(c3ccccc3)CC2)c1)c1nsc2ccccc12 -7.69%, CC(=O)[C@@]1(O)CC[C@H]2[C@@H]3C[C@H](C)C4=CC(=O)C=C[C@]4(C)[C@@]3(F)[C@@H](O)C[C@@]21C -10.9%, Cc1c(C(=O)Nc2ccccc2)sc2nc(-c3cc4ccccc4oc3=O)[nH]c(=O)c12 -10.6%, CCc1ccc2oc(C(=O)Nc3cc(Cl)ccc3OC)cc(=O)c2c1 -10.7%, CCOc1ccc(NC(=O)c2sc3nc4n(c(=O)c3c2C)CCCC4)cc1 -12.5%, Cc1cc(Cl)ccc1NC(=O)CS(=O)(=O)c1cccc2nsnc12 5.36%, CCOC(=O)C1CCN(c2nc3c(S(=O)(=O)c4ccc(CC)cc4)nnn3c3ccc(Cl)cc23)CC1 0.564%

Reference: PubChem BioAssay AID1159614 (National Center for Advancing Translational Sciences (NCATS), 2016)
